Results from PubChem BioAssay (Tox21).
“And” between values parts separate entries of the source, which are not always exact repeats. Identical values can stand only once. More than one record can exist for a structure, and the calls need not agree. The source made the active and inactive calls. Unless noted, the call rests on the fitted dose curve.

What was measured:
[1] = system: thyroid hormone receptor (rat, GH3 cells); assay: qHTS assay to identify small molecule agonists of the thyroid receptor (TR) signaling pathway (AID 743066); settings: GH3.TRE-Luc cells, TR agonist luciferase, 24 h; activation: at 83.9 µM (top of the series) unless noted; on activation: on the % scale 0 is the no-effect control and ±100 the full control effect
[2] = target: Estrogen receptor (Homo sapiens) (UniProt P03372); assay: qHTS assay to identify small molecule antagonists of the estrogen receptor alpha (ER-alpha) signaling pathway (AID 743069; active means well fitted curve in the direction sought with a large enough effect in the signal ratio in the repeat runs, not every such curve was filed as active; inconclusive means weak or mixed curves, or effect the other way; inactive means no such curve, though single readings can be large or run the other way; the % refers to the signal ratio); settings: HEK293 ER-alpha-UAS-bla, beta-lactamase ratio, antagonist mode; activity, negative = inhibition: at 69.4 µM (top of the series)
In short: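 Antagonist mode: compounds in DMSO were co-added with 17beta-estradiol to ER-alpha-bla HEK293 cells (2% charcoal-stripped serum) and left 18 h at 37C. Reporter inhibition was measured as FRET fluorescence after 2 h LiveBLAzer substrate at room temperature.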

[3] = target: Estrogen receptor (Homo sapiens) (UniProt P03372); assay: qHTS assay to identify small molecule agonists of the estrogen receptor alpha (ER-alpha) signaling pathway using the BG1 cell line (AID 743079; active means well fitted curve in the direction sought with a large enough effect in the repeat runs; inconclusive means weak or mixed curves; inactive means no such curve, though single readings can be large; an effect the other way counts as inactive or inconclusive; further: nearly all actives have a fitted effect of over 20% in size); settings: BG1Luc4E2 cells, ERE-luciferase agonist, 22 h; activation: at 70.3 µM (top of the series) unless noted
[4] = qHTS assay to identify small molecule antagonists of the estrogen receptor alpha (ER-alpha) signaling pathway using the BG1 cell line (AID 743080); settings: BG1Luc4E2 ERE-luciferase antagonist mode, luminescence; activity change, negative = inhibition: at 70.3 µM (top of the series) unless noted;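 further: BG1 cells stimulated with 17beta-estradiol alongside compound; nearly all actives have a fitted effect of over 25% in size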
In short: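 BG1-Luc-4E2 cells (endogenous full-length ER-alpha, 4xERE luciferase) hormone-starved 5 days in charcoal-stripped FBS, plated 4,000/well for 24 h, then compound plus 17beta-estradiol for 21.5 h at 37 C; ONE-Glo luminescence read.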

[5] = target: Peroxisome proliferator-activated receptor gamma (Homo sapiens) (UniProt P37231); assay: qHTS assay to identify small molecule agonists of the peroxisome proliferator-activated receptor gamma (PPARg) signaling pathway (AID 743094; active means well fitted activation curve with a large enough effect in the signal ratio in the repeat runs, not every such curve was filed as active; inconclusive means weak or mixed curves, or effect the other way; inactive means no such curve, though single readings can be large or run the other way; the % refers to the signal ratio; on activation: on the % scale 0 is the no-effect control and ±100 the full control effect); settings: HEK293H PPARg-UAS-bla, beta-lactamase FRET ratio, 17 h; activation: at 57 µM (top of the series) unless noted
In short: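 Cell-based bla reporter, HEK293H background, PPARg-driven UAS. Pre-incubation 5 h, 37C, 5% CO2. Compound 17 h, 37C. Substrate 1 h RT; fluorescence.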

[6] = target: Peroxisome proliferator-activated receptor gamma (Homo sapiens) (UniProt P37231); assay: qHTS assay to identify small molecule antagonists of the peroxisome proliferator-activated receptor gamma (PPARg) signaling pathway (AID 743191); settings: HEK293H PPARg-UAS-bla, beta-lactamase ratio, antagonist, 17 h; ratio activity, negative = inhibition: at 62.6 µM (top of the series) unless noted; further: nearly all actives have a fitted effect of over 30% in size; on ratio activity, negative = inhibition: on the % scale 0 is the no-effect control and ±100 the full control effect
In short: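 Beta-lactamase reporter under UAS control in HEK293H PPARg-bla cells; compound treatment 17 h at 37C. Read-out: fluorescence intensity after 1 h room-temperature incubation with LiveBLAzer B/G FRET substrate.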

[7] = qHTS assay to identify small molecule antagonists of the thyroid receptor (TR) signaling pathway (AID 743065; active means well fitted curve in the direction sought with a large enough effect in the repeat runs; inconclusive means weak or mixed curves; inactive means no such curve, though single readings can be large; an effect the other way counts as inactive or inconclusive; further: nearly all actives have a fitted effect of over 55% in size; on activity, negative = inhibition: on the % scale 0 is the no-effect control and ±100 the full control effect)
In short: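 Antagonism measured as loss of luciferase signal in GH3 cells stably carrying a TRE-luciferase reporter, co-treated with compound and T3 (1 nM final) for 23.5 h at 37 C. Viability was read in the same well by CellTiter-Fluor.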

[8] = qHTS assay to identify small molecule antagonists of the estrogen receptor alpha (ER-alpha) signaling pathway - cell viability counter screen (AID 743074);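 further: HEK293 cells carrying ER-alpha-UAS-bla reporter stimulated with 17beta-estradiol; nearly all actives have a fitted effect of over 45% in size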
[9] = target: Estrogen receptor (Homo sapiens) (UniProt P03372); assay: qHTS assay to identify small molecule agonists of the estrogen receptor alpha (ER-alpha) signaling pathway (AID 743075); settings: HEK293 ER-alpha-UAS-bla, beta-lactamase FRET ratio, 18 h; activation: at 70.1 µM (top of the series);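 further: HEK293 GripTite cells with ER-alpha and UAS-driven beta-lactamase reporter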
[10] = qHTS assay to identify aromatase inhibitors - cell viability counter screen (AID 743084; active means well fitted curve in the direction sought with a large enough effect in the repeat runs; inconclusive means weak or mixed curves; inactive means no such curve, though single readings can be large; an effect the other way counts as inactive or inconclusive;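 further: cells stimulated with testosterone during compound exposure; nearly all actives have a fitted effect of over 55% in size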)
[11] = target: Aryl hydrocarbon receptor (Homo sapiens) (UniProt P35869); assay: qHTS assay to identify small molecule that activate the aryl hydrocarbon receptor (AhR) signaling pathway (AID 743085; active means well fitted curve in the direction sought with a large enough effect in the repeat runs; inconclusive means weak or mixed curves; inactive means no such curve, though single readings can be large; an effect the other way counts as inactive or inconclusive; further: nearly all actives have a fitted effect of over 15% in size)
In short: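 24 h compound exposure, 37C, HepG2-derived HG2L7.5c1 cells with DRE-responsive luciferase. Readouts: fluorescence viability, then luminescence at room temperature after 30 min.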

[12] = qHTS assay to identify small molecule antagonists of the estrogen receptor alpha (ER-alpha) signaling pathway using the BG1 cell line - cell viability counter screen (AID 743081; active means well fitted curve in the direction sought with a large enough effect in the repeat runs; inconclusive means weak or mixed curves; inactive means no such curve, though single readings can be large; an effect the other way counts as inactive or inconclusive;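 further: compound given together with 17beta-estradiol as the ER stimulus; nearly all actives have a fitted effect of over 45% in size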)
Aromatase (Homo sapiens) = Aromatase (Homo sapiens) (UniProt P11511); assay: qHTS assay to identify aromatase inhibitors (AID 743083; active means well fitted curve in the direction sought with a large enough effect in the repeat runs; inconclusive means weak or mixed curves; inactive means no such curve, though single readings can be large; an effect the other way counts as inactive or inconclusive; further: nearly all actives have a fitted effect of over 55% in size)
Potency means the concentration at half of the fitted maximal effect; tags describe the fitted curve by direction and shape or compound fluorescence and quenching.

Sequence of UniProt P03372 (P03372 whole entry, looked up): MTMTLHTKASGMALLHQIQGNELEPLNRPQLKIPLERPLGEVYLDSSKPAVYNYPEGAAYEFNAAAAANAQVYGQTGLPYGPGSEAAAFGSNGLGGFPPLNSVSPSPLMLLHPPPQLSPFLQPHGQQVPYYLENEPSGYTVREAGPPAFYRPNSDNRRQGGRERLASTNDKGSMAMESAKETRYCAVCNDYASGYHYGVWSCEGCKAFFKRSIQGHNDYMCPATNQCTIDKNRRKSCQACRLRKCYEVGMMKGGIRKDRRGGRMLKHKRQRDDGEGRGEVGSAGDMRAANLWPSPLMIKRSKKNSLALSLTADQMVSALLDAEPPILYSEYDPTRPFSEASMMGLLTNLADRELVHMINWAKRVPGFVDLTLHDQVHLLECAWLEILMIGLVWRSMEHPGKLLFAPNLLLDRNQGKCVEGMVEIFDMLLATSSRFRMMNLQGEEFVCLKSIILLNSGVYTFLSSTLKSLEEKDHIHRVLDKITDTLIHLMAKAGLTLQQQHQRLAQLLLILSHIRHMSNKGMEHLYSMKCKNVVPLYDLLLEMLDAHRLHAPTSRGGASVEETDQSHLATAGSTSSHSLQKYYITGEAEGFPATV
Sequence of UniProt P37231 (P37231 whole entry, looked up): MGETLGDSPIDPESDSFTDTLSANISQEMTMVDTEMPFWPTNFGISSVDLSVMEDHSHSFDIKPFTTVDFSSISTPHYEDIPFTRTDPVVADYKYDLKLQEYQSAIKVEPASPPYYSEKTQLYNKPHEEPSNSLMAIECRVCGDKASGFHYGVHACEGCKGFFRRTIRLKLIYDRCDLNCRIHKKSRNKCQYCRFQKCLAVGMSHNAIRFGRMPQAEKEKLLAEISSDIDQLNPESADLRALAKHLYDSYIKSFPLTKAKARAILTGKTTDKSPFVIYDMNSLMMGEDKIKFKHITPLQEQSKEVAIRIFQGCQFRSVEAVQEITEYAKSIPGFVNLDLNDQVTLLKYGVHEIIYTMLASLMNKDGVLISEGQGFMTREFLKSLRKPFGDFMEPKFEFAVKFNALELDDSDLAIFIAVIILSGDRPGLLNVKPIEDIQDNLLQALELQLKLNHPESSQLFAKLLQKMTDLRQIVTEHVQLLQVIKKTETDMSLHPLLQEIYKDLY
Sequence of UniProt P11511 (P11511 whole entry, looked up): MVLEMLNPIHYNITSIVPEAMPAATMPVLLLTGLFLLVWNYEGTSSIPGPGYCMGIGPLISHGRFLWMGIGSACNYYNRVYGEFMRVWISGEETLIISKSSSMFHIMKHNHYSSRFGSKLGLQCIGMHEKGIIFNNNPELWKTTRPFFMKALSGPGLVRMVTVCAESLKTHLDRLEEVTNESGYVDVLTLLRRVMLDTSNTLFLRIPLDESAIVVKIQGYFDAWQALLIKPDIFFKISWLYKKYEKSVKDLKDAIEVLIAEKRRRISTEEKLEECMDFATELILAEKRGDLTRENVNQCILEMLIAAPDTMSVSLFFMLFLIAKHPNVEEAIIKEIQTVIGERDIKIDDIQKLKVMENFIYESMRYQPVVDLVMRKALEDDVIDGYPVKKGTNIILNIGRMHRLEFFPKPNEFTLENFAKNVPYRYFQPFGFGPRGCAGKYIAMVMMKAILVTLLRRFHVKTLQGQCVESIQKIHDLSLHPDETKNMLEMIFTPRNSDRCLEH
Sequence of UniProt P35869 (P35869 whole entry, looked up): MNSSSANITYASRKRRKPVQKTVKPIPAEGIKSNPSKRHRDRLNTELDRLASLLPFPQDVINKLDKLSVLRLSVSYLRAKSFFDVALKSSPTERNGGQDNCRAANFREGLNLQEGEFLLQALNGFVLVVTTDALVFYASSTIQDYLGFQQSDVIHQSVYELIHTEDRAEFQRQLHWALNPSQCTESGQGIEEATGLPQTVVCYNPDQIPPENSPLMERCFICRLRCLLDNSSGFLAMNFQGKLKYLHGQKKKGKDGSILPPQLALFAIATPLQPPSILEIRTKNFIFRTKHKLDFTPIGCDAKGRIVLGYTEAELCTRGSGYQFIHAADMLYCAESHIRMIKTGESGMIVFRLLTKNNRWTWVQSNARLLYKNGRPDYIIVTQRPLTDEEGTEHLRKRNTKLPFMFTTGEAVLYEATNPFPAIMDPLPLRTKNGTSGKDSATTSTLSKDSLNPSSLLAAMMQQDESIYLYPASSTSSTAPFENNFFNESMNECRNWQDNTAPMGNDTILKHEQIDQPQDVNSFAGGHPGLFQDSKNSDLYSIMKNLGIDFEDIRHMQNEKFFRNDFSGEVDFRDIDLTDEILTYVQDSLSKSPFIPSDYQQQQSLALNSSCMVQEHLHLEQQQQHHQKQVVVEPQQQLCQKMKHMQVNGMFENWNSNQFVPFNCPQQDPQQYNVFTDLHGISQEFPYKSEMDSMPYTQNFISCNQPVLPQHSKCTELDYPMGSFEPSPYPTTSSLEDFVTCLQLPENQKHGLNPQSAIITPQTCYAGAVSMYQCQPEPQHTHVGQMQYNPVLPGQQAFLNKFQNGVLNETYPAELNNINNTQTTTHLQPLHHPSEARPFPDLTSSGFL

C=CCC1=C(C)[C@@H](OC(=O)[C@@H]2[C@@H](C=C(C)C)C2(C)C)CC1=O
activation [1]: inconclusive: -8.03% [phenotype inactive]
Potency [2]: inconclusive: 13.8 µM [inhibitor, full curve, poor fit]
Potency [3]: inconclusive: 54.5 µM [inhibitor, partial curve]
Potency [4]: active: 54.5 µM
activation [5]: inconclusive: -11.8%
Potency [6]: inconclusive: 21.9 µM [fluorescent, single point]

CC1(C)[C@H](C(=O)O[C@H](C#N)c2cccc(Oc3ccccc3)c2)[C@@H]1/C=C(\Cl)C(F)(F)F
Potency [7]: inconclusive: 25.3 µM [inhibitor, full curve]
Potency [5]: inconclusive: 40.4 µM

CNC(=O)CSP(=O)(OC)OC
Potency [7]: inactive
Potency [8]: inactive
ratio activity, negative = inhibition [6]: inconclusive: 9.56%

CCCC[P+](CC)(CCCC)CCCC (tested in a mixture with another compound)
Potency [7]: inactive
Potency [5]: inactive

COc1ccc(C(c2ccc(OC)cc2)C(Cl)(Cl)Cl)cc1
Potency [1]: inconclusive: 19.3 µM [inhibitor]
Potency [2]: active: 43.4 µM [inconclusive]
Potency [8]: inconclusive: 34.7 µM [cytotoxic, partial curve, poor fit]
Potency [9]: active: 19.4 µM [inconclusive]
Potency [3]: active: 4.97 µM
Potency [10]: inconclusive: 858 nM [rising, full curve, poor fit]
Potency [11]: inconclusive: 24.3 µM [activator, partial curve, poor fit]
activation [5]: inconclusive: -10.2%
Potency [6]: inconclusive: 38.7 µM [fluorescent]

CCC(C)Br (stereo unspecified)
Potency [7]: inactive
Potency [12]: inactive

Brc1cccc(-c2ccccc2)c1
Potency [1]: inactive
Potency [2]: inconclusive: 3.92 µM [activator, full curve]
Potency [3]: inconclusive: 0.195 µM [activator, full curve, poor fit]
Potency [4]: inactive

O=C(CCl)CCl
Potency [2]: inconclusive: 50.8 µM [activator] and inconclusive: 21.9 µM [activator, partial curve]
Potency [8]: inconclusive: 1.74 µM [cytotoxic, full curve, poor fit]
Potency [4]: inconclusive: 56.5 µM [rising, partial curve] and inconclusive: 13.7 µM [rising, partial curve]
Potency [12]: inconclusive: 68.6 µM [cytotoxic, single point]
Potency [10]: inconclusive: 22.5 µM [cytotoxic, full curve] and active: 15.4 µM
Potency [5]: inconclusive: 63.9 µM [fluorescent, single point] and inconclusive: 38.9 µM [fluorescent, partial curve]

C[C@H]1CC[C@@H]2[C@@H](C)[C@H]3[C@H](C[C@H]4[C@@H]5CC=C6CC(O[C@@H]7O[C@H](CO)[C@H](O)[C@H](O[C@@H]8O[C@H](CO)[C@@H](O)[C@H](O)[C@H]8O)[C@H]7O[C@H]7O[C@@H](C)[C@H](O)[C@@H](O)[C@H]7O)CC[C@]6(C)[C@H]5CC[C@]34C)N2C1 (stereo partly specified)
activation [1]: inconclusive: -8.45% [phenotype inactive]
Potency [2]: inconclusive: 8.49 µM [cytotoxic, full curve]
Potency [8]: active: 16.9 µM
Potency [3]: inconclusive: 29.8 µM [inhibitor, partial curve]
Potency [12]: inconclusive: 29.8 µM [cytotoxic, single point]
Potency (Aromatase (Homo sapiens)): inconclusive: 33.5 µM [inhibitor, single point] and active: 25.1 µM
Potency [10]: inconclusive: 29800 nM [cytotoxic, single point]
Potency [5]: inconclusive: 20.1 µM [falling, full curve]
Potency [6]: inconclusive: 22.6 µM [cytotoxic, partial curve]

CC(=O)Nc1ccc2c(c1)Cc1ccccc1-2
Potency [7]: inconclusive: 19.6 µM [inhibitor, partial curve, poor fit]
Potency [3]: active: 11 µM
Potency [4]: inconclusive: 3.11 µM [rising, full curve]

CC1(C)C(C=C(Cl)Cl)C1C(=O)OC(C#N)c1ccc(F)c(Oc2ccccc2)c1 (stereo unspecified)
Potency [7]: inconclusive: 27.3 µM [inhibitor, partial curve, poor fit]
Potency [9]: inactive
Potency [3]: inactive
Potency (Aromatase (Homo sapiens)): inconclusive: 6.86 µM [inhibitor, full curve]
Potency [5]: inconclusive: 61.6 µM [falling, single point]

Cc1cc(C)c(C(=O)P(=O)(C(=O)c2c(C)cc(C)cc2C)c2ccccc2)c(C)c1
Potency [1]: inactive
activity, negative = inhibition [2]: inconclusive: 24.8%
Potency [8]: inconclusive: 0.309 µM [cytotoxic, full curve]
Potency [9]: inconclusive: 49 µM [activator, partial curve, poor fit]
Potency [6]: inactive
